Among all 94,000 compounds or so, about 4,000 (4.3%) were called active. The inconclusive results got no clear call from the source; some entries with a clear call stand among them for comparison. The call rests on the fitted dose curve; in most records, active means well fitted inhibition curve with a large enough effect; inconclusive means small, poorly fitted or top-dose-only effect; inactive means no such curve, though single readings can be large or run the other way. Potencies beside an inconclusive call are fits to weak or partial responses and may not hold up.
assay: Cytotoxic Profiling in NIH 3T3 Cell Line of Diverse Libraries Using Quantitative High-Throughput Screening; conditions: NIH 3T3 viability, CellTiter-Glo ATP luminescence, 48-72 h; series mostly up to 96.7 µM; further: nearly all actives have a fitted effect of over 55% in size
Outline: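 Luminescent ATP readout (CellTiter-Glo, 10 min RT) after 48 or 72 hr compound exposure of NIH 3T3 cells seeded at 400 cells/well in 1536-well format; quantitative HTS.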
Potency means the concentration at half of the fitted maximal effect; tags describe the fitted curve by direction and shape.

Row | Structure (SMILES) | Potency
1 | CC(C)Cn1cncc1CNC(=O)c1ccc2nc(-c3ccc(F)cc3)cn2c1 | inconclusive: 50.1 µM [inhibitor, partial curve, poor fit]
2 | CCCCNC(=O)c1cccc2c1CCN2C(=O)Nc1ccccc1 | inactive
3 | COc1ccccc1CCN1CCC(CN(C)C(=O)CCc2ccccc2Cl)CC1 | inconclusive: 79.4 µM [inhibitor, partial curve, poor fit]
4 | Cc1noc([C@@H](C)NS(=O)(=O)c2ccc(Cl)cc2)c1C(=O)O | inconclusive: 100 µM [inhibitor, partial curve, poor fit]
5 | O=C(C[C@@H]1CCNC[C@@H]1Cc1cc(COc2ccccc2)on1)NCc1cccs1 | inconclusive: 100 µM [inhibitor, partial curve, poor fit]
6 | CN(Cc1cccnc1)c1ccc(-c2nc(COc3ccccc3)no2)cn1 | inconclusive: 44.7 µM [inhibitor, partial curve]
7 | Cc1cc(C)c(NC(=O)Cn2c(=O)c(-c3noc(C)n3)c3n(c2=O)CCCC3)c(C)c1 | inactive
8 | Cc1noc(C)c1S(=O)(=O)N1CCCC1c1nncn1C1CCCC1 (stereo unspecified) | inactive
9 | Cc1ncccc1C(=O)N[C@@H]1CN(c2ncccn2)C[C@H]1CO | inactive
10 | CCCc1nnc(C[C@@H]2C[C@@H](C(C)C)[C@H](CO)C=C2C)o1 | inconclusive: 126 µM [inhibitor, partial curve, poor fit]
11 | Cc1ccc(C)c(OCc2cc(C(=O)N3CCC(N4CCSCC4)CC3)no2)c1 | inconclusive: 44.7 µM [inhibitor, partial curve, poor fit]
12 | O=C(Nc1cccc(F)c1)C1CCCN(Cc2cccc(-c3cccs3)c2)C1 (stereo unspecified) | inconclusive: 50.1 µM [inhibitor, partial curve, poor fit]
13 | COc1ccc(C(=O)N2CCCC(Cc3ncc(C)n3Cc3ccccc3)C2)c(OC)c1 (stereo unspecified) | inactive
14 | COc1ccccc1-c1ccc2ncc(Nc3ccc(CCO)cc3)n2n1 | inconclusive: 39.8 µM [inhibitor, partial curve, poor fit]
15 | O=C(N[C@@H]1C[C@H](Cn2cc(C3CC3)nn2)[C@@H](O)[C@H]1O)c1cncnc1 | inactive
16 | O=C([C@H](O)c1ccccc1)N1CCc2onc(-c3cccc4ccccc34)c2C1 | inconclusive: 50.1 µM [inhibitor, partial curve, poor fit]
17 | CCN1c2cc(C(=O)NCc3cccc(Cl)c3)ccc2C(=O)N2CCCCCC21 (stereo unspecified) | inconclusive: 50.1 µM [inhibitor, partial curve, poor fit]
18 | COCC(=O)N1CCCC(c2noc(COC)n2)C1 (stereo unspecified) | inactive
19 | CCCN1CCC2(Cc3ccccc3CN(C(=O)c3ccccc3)C2)C1 (stereo unspecified) | inactive
20 | COCCN1CCCC[C@]2(C[C@H](C(=O)O)[C@H](c3ccco3)N2C(=O)Cc2ccccc2)C1=O | inconclusive: 79.4 µM [inhibitor, partial curve, poor fit]
21 | CCOc1ccc2c(n1)CCN(C(=O)C1(c3ccc(OC)cc3)CC1)C2 | inconclusive: 15.8 µM [inhibitor, partial curve, poor fit]

Row | Structure (SMILES) | Potency
22 | COc1ncccc1-c1cc2[nH]ccc2c(C(=O)NCc2c(C)cc(C)[nH]c2=O)n1 | active: 50.1 µM
23 | CN(CCNC(=O)C1CCCN(c2cnn(Cc3ccccc3)c(=O)c2)C1)C1CCCCC1 (stereo unspecified) | inactive
24 | O=C1c2c(nc(CNc3ccccc3Cl)n2Cc2ccccc2)NCCN1CC1CC1 | active: 89.1 µM
25 | Cc1ccc(NC(=O)N2CCC(n3cnnc3C3CC3)C2)cc1C (stereo unspecified) | inactive
26 | CC1(c2cccnc2)N(CCOc2ccccc2)C(=O)OC12CCN(C(=O)c1cccc(Cl)c1)CC2 (stereo unspecified) | inconclusive: 2.51 µM [inhibitor, full curve, poor fit]
27 | COc1cccc(C(=O)N2CC(N3C(=O)c4c(c(C)nn4-c4ccccc4)C3C(C)C)C2)c1 (stereo unspecified) | inconclusive: 50.1 µM [inhibitor, partial curve, poor fit]
28 | O=C(NC1CCCCC1)C1CCc2sc(C(=O)N3CCCC3)cc2C1 (stereo unspecified) | inconclusive: 44.7 µM [inhibitor, partial curve, poor fit]
29 | O=C(Cc1cccs1)N[C@H]1CCN2C(=O)N(c3ccc(Oc4ccccc4)cc3)C(=O)[C@@H]2C1 | inconclusive: 10 µM [inhibitor, partial curve, poor fit]
30 | CN(C)C(C(=O)NCc1nnc2n1CCCC2)c1cccc(F)c1 (stereo unspecified) | inactive
31 | COc1ccc(-n2nc3n(c2=O)CCN([S+](=O)([O-])c2c(C)noc2C)C3)cc1 | inconclusive: 50.1 µM [inhibitor, partial curve, poor fit]
32 | Cc1sc2cc(C(=O)NCc3ccncc3)[nH]c2c1CN1CCCCC1 | inconclusive: 50.1 µM [inhibitor, single point]
33 | Cc1c([C@@H]2C[C@H](NC(=O)c3ccccc3)C[C@H](C(C)(C)C)O2)cnn1C | inconclusive: 79.4 µM [inhibitor, partial curve, poor fit]
34 | Cc1cccc(-c2cccc(CN3CCCC(C(=O)N4CCOCC4)C3)c2)c1 (stereo unspecified) | inconclusive: 50.1 µM [inhibitor, partial curve, poor fit]
35 | COc1ccccc1C(=O)N1CCCN(CCc2ccccc2)c2ccccc21 | active: 31.6 µM
36 | COCc1noc([C@@H]2CN(Cc3cn(C)c4ccc(OC)cc34)C[C@H]2C(N)=O)n1 | inconclusive: 50.1 µM [inhibitor, partial curve, poor fit]
37 | CCc1nc2c(c(-c3ccc(OC)cc3)n1)CN(C(=O)c1ccccc1F)CC2 | inconclusive: 3.55 µM [inhibitor, full curve, poor fit]
38 | O=[S+]([O-])(c1ccccc1)N1CC2(COCCN(Cc3ccc4c(c3)CCO4)C2)C1 | inactive
39 | O=C(CC1=CCCCC1)N1CC(c2noc(C3CCCN3CC3CC3)n2)C1 (stereo unspecified) | inactive
40 | CCc1noc(-c2cn(C3CCN(C(=O)c4cccc(OC(F)(F)F)c4)C3)nn2)n1 (stereo unspecified) | inconclusive: 44.7 µM [inhibitor, partial curve, poor fit]
41 | Cn1cc(CNCC2(COc3cccnc3)C[C@@H](O)[C@@H](O)C2)c2ccccc21 (stereo partly specified) | inconclusive: 44.7 µM [inhibitor, partial curve, poor fit]
